How the values were obtained:
[1] = tested on: degradation of PS2; assay: Degradation and turnover of PS2 in tetracycline-inducible PS2-expressing H4 cells, Western blot of detergent-soluble/resistant fractions; type: cell-based, human
Experimental: The H4 founder cells were transfected with 10 μg of each construct and 1 μg of pCNH2hygro, conferring resistance to hygromycin. Hygromycin-resistant colonies were isolated in the presence of tetracycline and screened for PS2 expression by Western blot analysis using antibodies against the FLAG epitope-tag upon removal of tetracycline. […] For induction of PS2, cells were washed five times with prewarmed phosphate-buffered saline to retrieve residual tetracycline and then incubated with complete media without tetracycline for the indicated hours.
Cells were fractionated into detergent-soluble and resistant fractions with CSK buffer (10 mM PIPES (pH 6.8), 100 mM NaCl, 2.5 mM MgCl2, 1 mM CaCl2, 0.3 M sucrose, 1% Triton X-100, 1 mM phenylmethysulfonyl fluoride, 1 μg/ml aprotinin, 1 μg/ml chymostatin, 1 μg/ml leupeptin, 1 μg/ml pepstatin A) (Papadopoulos, V., and Hall, P. F., J. Cell. Biol. 108:553-567(1989)). Cells were washed with ice-cold phosphate-buffered saline and incubated in CSK buffer for 5 min on ice with gentle rocking. The supernatant (detergent-soluble fraction) was collected, and the insoluble structure that remained on the dish was collected, washed one with CSK buffer, and used as detergent-insoluble fraction. The resulting detergent-resistant pellet which consists primarily of cytoskeletal proteins was further incubated with DNase (300 μg/ml) (Papadopoulos, V., and Hall, P. F., J. Cell. Biol. 108:553-567 (1989); Hamaguchi, M., and Hanafusa, H., Proc. Natl. Acad. Sci. USA 84:2312-2316 (1987); Osborn, M., and Weber, K., Exp. Cell Res. 106:339-349 (1977)).
Protein samples were quantiated by the BCA protein assay kit (Pierce). SDS-PAGE was carried out using 4-20% gradient Tris-glycine gels under reducing conditions. Proteins were transferred to polyvinylidene difluoride membrane (Bio-Rad) using a semi-dry electrotransfer system (Hoefer). […]

[2] = tested on: generation of the 20 kDa PS2-CTF; assay: Generation of 20 kDa PS2-CTF in H4 cells overexpressing PS2, Western blot with αPS2Loop; conditions: FIG. 7d

`C[C@H]1CCC/C=C/[C@@H]2C[C@H](O)C[C@H]2[C@H](O)/C=C/C(=O)O1` [BFA, Brefeldin A] was tested, and the “degradation of full-length PS2” value ([1]; BFA 5 μg/ml, 12 h after 12 h induction, FIG. 6) was “rapid degradation of full-length PS2”.

`CC(=O)N[C@@H](CSC(=O)[C@]1([C@@H](O)C(C)C)NC(=O)[C@H](C)[C@@H]1O)C(=O)O` [lactacystin, Lactacystin] was tested, and the “levels of HMW-PS2” value ([1]; ALLN 50 μM or lactacystin 10 μM for 12 h after 12 h induction, clone WF2, FIG. 5A) was “dramatically increased levels of HMW-PS2”.

In the case of `COC(=O)CC[C@H](NC(=O)[C@H](CC(=O)OC)NC(=O)OCc1ccccc1)C(=O)N[C@H](C(=O)N[C@@H](CC(=O)OC)C(=O)CF)C(C)C` [zDEVD-fmk], the “generation of the 20 kDa PS2-CTF” value ([2]; cells overexpressing PS2, induced 24 h, inhibitor added at induction, listed as zDEVD) is reported as “blocked the generation of the 20 kDa PS2-CTF” and the “levels of the endogenous 25 kDa CTF, the 26 kDa transgene-derived CTF, or other PS2 species” value ([2]; cells overexpressing PS2) is reported as “no effect”.

For aprotinin, the “turnover of the PS2-CTF” value ([1]; cell-permeable protease inhibitors, inducible PS2 H4 cells) was “None of these protease inhibitors affected the turnover of the PS2-CTF”.
